# Experimental data reported in PMC12040169 (PLOS Biology, 2025).
# The list shows a part of the results.
# Test system: T1, C. trachomatis L2/434/Bu expressing GFP (CTL2-GFP)
# T1 construct: L2/434/Bu GFP intracellular growth in HeLa cells
# Parameters: species or system HeLa; C. trachomatis total inclusion area by high-content imaging, normalised to DMSO
# Details: total inclusion area; 28.5 h, 10 µM; inhibitor
# Summary of the method: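 High-content imaging followed the bulk GFP/resorufin measurement: fixed, Hoechst-stained cells were scored for GFP inclusions and host nuclei per well. Total inclusion area and count served as growth proxies, nuclei number as the viability proxy. MIC calculation matched the bulk assay.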
row,Compound,% of control remaining
1,COc1cccc(C(=O)Nc2ccccc2C(=O)Nc2cccc(C(=O)O)c2C)c1 [CBK265768],73.5432
2,CCOc1ccc(-c2cc(C(=O)N3CCN(C)CC3)c3ccccc3n2)cc1 [CBK066900],76.9716
3,Cc1cc2nc(C(=O)NCCCn3ccnc3C(C)C)cc(C)n2n1 [CBK307022],75.383
4,C=CCn1c(S)nnc1COc1cccc2ccccc12 [CBK267292],121.14
5,O=C(CN1CCCCC1Cn1cccn1)NCc1ccccn1 (stereo not shown) [CBK306146],30.9423
6,Cc1cccc(N2CCN(CC(=O)Nc3ccc(S(N)(=O)=O)cc3)CC2)c1C [CBK269369],97.6334
7,COc1ccccc1-c1cnc2[nH]c(=O)n(C3CCCCC3)c2n1 [CBK064203],120.644
8,Cc1c(CN(C)C(=O)c2ccc(COc3ccc(Cl)cc3)cc2)cnn1C [CBK265756],51.9547
9,CCn1nc(C(=O)Nc2ccccc2-c2ccc(OC)cc2)c2ccccc2c1=O [CBK285864],113.196
10,CCC(C)(C)c1ccc(S(=O)(=O)NCc2ccc(C(F)(F)F)cc2)cc1 [CBK044820],69.2536
11,Cc1nn(C)c(C)c1C(C)NC(=O)C1CC2C=CC1C21CC1 (stereo not shown) [CBK283076],97.157
12,O=C(O)c1[nH]n(-c2ccc(Cl)cc2)c(=O)c1CCO [CBK287079],119.101
13,Cc1cc(COc2nccnc2N2CCN(CCCn3c(=O)[nH]c4ccccc43)CC2)no1 [CBK084199],93.6178
14,Cc1nc2cccnc2n1C1CCN(C(=O)NC2CCCCC2)CC1 [CBK283637],76.453
15,Cc1noc(C)c1S(=O)(=O)Nc1cccc(C(=O)O)c1 [CBK038902],120.234
16,CC(=O)c1c(C)nn(CCC(=O)Nc2ccc(Cl)c(Cl)c2)c1C [CBK269829],74.1927
17,NC12CC(=O)CC(CC(c3ccccc3)C1)C2 (stereo not shown) [CBK010323C],54.7934
18,CC(=O)OC(C(=O)O)C(OC(C)=O)C(=O)O (stereo not shown) [CBK261063],98.5728
19,Cc1c(-c2noc(-c3ccc4c(c3)OCO4)n2)nnn1Cc1ccccc1 [CBK288609],100.053
20,CC(Oc1ccc(/C=C/[N+](=O)[O-])cc1)C(=O)O (stereo not shown) [CBK264042],111.291
21,CC(C)N(CCOc1nccnc1-c1ccc(OC(F)(F)F)cc1)C(C)C [CBK106848],103.211
22,COC(=O)c1ccccc1NC(=O)CSc1nnc(-c2ccncc2)[nH]1 [CBK266324],92.6983
23,OCCN1CC2(CCN(CCN3CCOCC3)CC2)c2ccccc21 [CBK126766],57.3197
24,COc1ccc(C(=O)NC(=S)Nc2ccccc2N2CCN(C)CC2)cc1[N+](=O)[O-] [CBK268292C],83.9978
25,O=C(O)CCc1nc(-c2ccncc2)no1 [CBK288558],90.6398
26,c1nc(OCCN2CCOCC2)cc(N2CCCNCC2)n1 [CBK085466],119.356
27,O=[N+]([O-])c1ccc(N2CCN(S(=O)(=O)c3ccccc3)CC2)cc1Sc1cccc2cccnc12 [CBK263821],87.4176

row,Compound,% of control remaining
1,Cc1cc(S(=O)(=O)Nc2n[nH]cc2C#N)c(C)cc1Cl [CBK044943],83.3532
2,OCCCNc1nccnc1-c1ccccc1Cl [CBK038092],121.097
3,CNc1ccc(C(O)(C(F)(F)F)C(F)(F)F)cc1C(O)(C(F)(F)F)C(F)(F)F [CBK268070],98.2967
4,COC(=O)C(CC(C)C)Nc1nc(OC)cc(OC)n1 (stereo not shown) [CBK058765],89.694
5,COc1ccc(C2=CC(c3ccc(Cl)cc3)N3N=CNC3=N2)cc1OC (stereo not shown) [CBK287966],99.3669
6,Cc1nn2cc(-c3n[nH]cc3[N+](=O)[O-])cnc2c1C(=O)O [CBK268883],67.7127
7,O=C1CCCN1CC(=O)N1CCCC1c1nc2ccccc2[nH]1 (stereo not shown) [CBK282315],95.9391
8,CC1CCN(Cc2ccc(-c3nnn(CC(=O)NCc4ccc(O)cc4)n3)cc2)CC1 [CBK144156C],95.794
9,CC1=NNC(=O)C1C(c1ccc(Cl)cc1Cl)C1C(=O)NN=C1C (stereo not shown) [CBK067756],93.3765
10,O=S(=O)(Nc1nc(-c2c(F)cccc2Cl)cs1)c1cc(Cl)c(Cl)s1 [CBK200025],105.646
11,O=C(CCNS(=O)(=O)c1ccccc1)N1CCC(Cc2ccccc2)CC1 [CBK270091],95.7369
12,COc1ccc(N2CCN(C(=O)c3ccc([N+](=O)[O-])o3)CC2)cc1 [CBK091410],35.1973
13,COc1ccc(C2c3cc(OC)c(OC)cc3CC(=O)N2c2cccc(C(=O)O)c2)cc1OC (stereo not shown) [CBK296118],109.672
14,Cc1cc(COc2cc(NC(C)C)ncn2)no1 [CBK115887],119.942
15,Cc1ccc(-n2c(SCC(=O)NCc3ccccc3)nnc2-c2ccccc2O)c(C)c1 [CBK268892],108.163
16,O=C(O)c1sccc1S(=O)(=O)NCc1ccc(COCC(F)(F)F)cc1 [CBK296706],85.4828
17,Cc1nc2c(C(=O)NC3CCOCC3)cnn2c(C)c1Cc1cccc(Br)c1 [CBK165011],80.9232
18,O=S1(=O)CCN(Cc2cn(-c3ccccc3)nn2)CC1 [CBK113103],92.5514
19,Cc1cc2c(cc3c(=O)n(CC(=O)NCC4CC4)nc(C)n32)s1 [CBK284097],94.2116
20,O=C(N[C@H]1CCN2C(=O)c3cc(-c4ccsc4)ccc3NC(=O)[C@@H]2C1)c1cccs1 [CBK289563],83.2461
21,CCN(CC)C(=O)CCn1c(-c2cccnc2)cc2cccnc21 [CBK282160],93.4099
22,COc1cccc(OCc2ccc(Cn3ccn(C(=O)CCCC(C)C)c3=O)cc2)c1 [CBK106638],78.3099
23,COc1ccc(N2CCN(c3nc(OC)nc(OC)n3)CC2)cc1 [CBK264245],138.319
24,COc1ccccc1-c1cn2ccnc2c(NCc2ccccc2)n1 [CBK037372],108.692
25,O=C(CSc1nc(-c2ccc(F)cc2)cc(C(F)(F)F)n1)NCCN1CCOCC1 [CBK266121],141.192
26,O=C(CN1C(=O)c2ccccc2S1(=O)=O)Nc1ccccc1-c1ccccc1 [CBK266390],128.235
27,CN(C)c1cccc(-c2cc(N3CCN(c4ccccn4)CC3)ncn2)c1 [CBK037825],151.401

row,Compound,% of control remaining
1,O=S(=O)(c1ccc2ccccc2c1)c1cnns1 [CBK001887],34.9423
2,CCCCOC(=O)c1ccc(NC(=O)c2c(Cl)cccc2Cl)cc1 [CBK263664],84.2136
3,Cc1nc2cc(-c3nccn3C)nn2c(N2CCN(c3ccc4c(c3)OCCO4)CC2)c1C [CBK286186],95.5588
4,CCCOc1c(Cl)cc(/C=C2\N=C(c3ccc(OC)cc3)OC2=O)cc1OCC [CBK098846],109.781
5,CCN(CC)C(=O)c1cccc(NS(=O)(=O)c2cccc(C(=O)O)c2)c1 [CBK296943],96.306
6,CCc1ccc(NC(=O)CN(CCO)Cc2cc(Br)ccc2F)cc1 [CBK305968],69.3567
7,CC(C)(C)c1ccc(OCc2nnc(Sc3nc4ccc([N+](=O)[O-])cc4s3)n2-c2ccccc2)cc1 [CBK263366],102.61
8,N#CC(/N=C/c1ccc(C#Cc2ccccc2)cc1)=C(C#N)/N=C/c1ccc(C#Cc2ccccc2)cc1 [CBK262066],100.568
9,COc1ccc(OCCN2CCC3(CC2)CN(C(=O)CO)c2ccccc23)cc1 [CBK131512],84.8255
10,Cn1c(O)c(CCNc2cc([C@H]3C[C@@H](N)C3)nc(C3CC3)n2)cnc1=O [CBK306819],84.7571
11,Cc1ccc(OCc2occc2C(=O)NCCn2ccnc2C)cc1 [CBK306725],48.3679
12,COc1ccc2ncc(C#N)c(Nc3ccc(OC)c(OC)c3)c2c1 [CBK287808],120.351
13,NS(=O)(=O)c1ccc(Nc2nc3nonc3nc2Nc2ccc(S(N)(=O)=O)cc2)cc1 [CBK261110],91.4519
14,CC(=O)c1ccc(-c2nc(NC(=O)c3cccc([N+](=O)[O-])c3)cnc2-c2ccc(F)c(Cl)c2)s1 [CBK036816],70.076
15,COc1cccc(C(=O)NNC(=O)Nc2ccccc2)c1 [CBK261608],91.2327
16,COc1ccc(CCN2CNc3c(c(=O)n(C)c(=O)n3C)C2)cc1OC [CBK074818],101.7
17,CC1(C)CC(=O)Nc2ccccc2S1 [CBK025483],61.0813
18,CCOC(=O)c1ccnc(-c2cc3ccccc3o2)c1 [CBK149253],80.7401
19,O=C(CSc1n[nH]c(=O)n1C1CCCCC1)NCc1ccc(N2CCCC2=O)cc1 [CBK299785],72.963
20,Cc1c(Br)c([N+](=O)[O-])nn1C(C)C(=O)NCc1ccco1 (stereo not shown) [CBK269108],79.7536
21,CC(=O)c1ccc(NC(=O)N[C@H]2CCN3C(=O)[C@H]4CCCN4C(=O)[C@H]23)cc1 [CBK289228],131.385
22,COc1ccccc1OCc1ccccc1 [CBK002814],69.8296
23,CC(=O)Cc1nc2ccccc2nc1O [CBK089805],42.4923
24,CC(C)n1c(=O)n(CC(=O)N2CCc3ccccc32)c2cccnc21 [CBK283855],79.4021
25,COc1cccc(CN2CCN(C(=O)c3ccco3)CC2)c1OC [CBK074380],81.7049
